The supplement of paper PMC11880418
Structures can show the parent of a compound that is named as a salt. Some of the results follow. The data scatter; read single values as rough. Residues, ends and D or L forms follow the SMILES beside them.

How the values were obtained:
Experiment in all cases: ALDHbr (CSC) cell proportion score relative to DMSO vehicle (ratio to DMSO); breast (SUM159) / gastric (MKN45) / pancreatic (PANC1) / colon cancer lines; ALDHbr cells have high ALDH activity and are rich in cancer stem cells (CSC); higher = more CSC (ALDHbr) cells remaining
Settings in all cases: 10 µM; 72 h
MKN45 = tested on: MKN45
PANC1 = tested on: PANC1
SUM159 = tested on: SUM159
T84 = tested on: T84
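Further: High-content imaging of ALDEFLUOR-stained cells with Hoechst-labelled nuclei in 384-well plates, triplicate wells, scored as Z-score against 0.1% DMSO vehicle, negative meaning fewer ALDHbr cells.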

| Structure (SMILES) | ALDHbr (MKN45) | ALDHbr (PANC1) | ALDHbr (SUM159) | ALDHbr (T84) |
| --- | --- | --- | --- | --- |
| CCc1c(C)[nH]c2c1C(=O)C(CN1CCOCC1)CC2 (centres undefined) [Molindone hydrochloride] | 0.994 | 0.919 | 0.909 | 1.05 |
| CC[N+](CC)(CC)CCOc1cccc(OCC[N+](CC)(CC)CC)c1OCC[N+](CC)(CC)CC [Gallamine triethiodide] | 1.03 | 0.938 | 1.14 | 1.1 |
| CCCCCCCCNC(C)C(O)c1ccc(SC(C)C)cc1 (centres undefined) [Suloctidil] | 1.01 | 1.34 | 0.678 | 0.186 |
| CC(=O)O[C@]1(C(C)=O)CC[C@H]2[C@@H]3C=C(C)C4=CC(=O)CC[C@]4(C)[C@H]3CC[C@@]21C [Megestrol acetate] | 0.868 | 0.739 | 0.831 | 1.09 |
| NC[C@H]1O[C@H](O[C@H]2[C@H](O)[C@@H](O[C@H]3O[C@H](CO)[C@@H](O)[C@H](N)[C@H]3O)[C@H](N)C[C@@H]2N)[C@H](N)C[C@@H]1O [Tobramycin] | 0.929 | 0.995 | 0.993 | 0.937 |
| CC(CNC1CCCCC1)OC(=O)c1ccccc1 (centres undefined) [Hexylcaine hydrochloride] | 1.15 | 0.859 | 0.874 | 1.06 |
| CN1CCN(C(c2ccccc2)c2ccc(Cl)cc2)CC1 (centres undefined) [Chlorcyclizine hydrochloride] | 1.18 | 0.991 | 0.912 | 0.653 |
| CN(C)CCC(c1ccc(Br)cc1)c1ccccn1 (centres undefined) [Brompheniramine maleate] | 1.21 | 0.916 | 1.03 | 0.904 |
| CC1(C)OC(=O)NC1=O [Dimethadione] | 1.08 | 0.937 | 0.926 | 0.786 |
| C=C1c2cccc(O)c2C(O)=C2C(=O)[C@]3(O)C(O)=C(C(N)=O)C(=O)[C@@H](N(C)C)[C@@H]3[C@@H](O)[C@H]12 [Methacycline hydrochloride] | 1.28 | 0.617 | 0.911 | 0.778 |
| CN(C)[C@@H]1C(=O)C(C(=O)NCNCCCC[C@H](N)C(=O)O)=C(O)[C@@]2(O)C(=O)C3=C(O)c4c(O)cccc4[C@@](C)(O)[C@H]3C[C@@H]12 [Lymecycline] | 1.21 | 0.618 | 0.845 | 1.02 |
| CCN1CC(CCN2CCOCC2)C(c2ccccc2)(c2ccccc2)C1=O (centres undefined) [Doxapram hydrochloride] | 0.993 | 0.925 | 0.785 | 0.901 |
| CCCCN(CCCC)CCC(O)c1cc2c(Cl)cc(Cl)cc2c2cc(C(F)(F)F)ccc12 (centres undefined) [Halofantrine hydrochloride] | 1.26 | 3 | 0.817 | 0.445 |
| O=S(=O)(O)c1cc(O)ccc1O [Ethamsylate] | 1.03 | 0.989 | 0.902 | 0.904 |
| Nc1ccc(S(=O)(=O)Nc2nccs2)cc1 [Sulfathiazole] | 0.898 | 0.805 | 1.02 | 0.974 |
| CC(Oc1c(Cl)cccc1Cl)C1=NCCN1 (centres undefined) [Lofexidine] | 1.09 | 0.919 | 1.57 | 0.895 |
| c1ccc2c(CC3=NCCN3)cccc2c1 [Naphazoline hydrochloride] | 0.984 | 0.908 | 0.974 | 0.996 |
| CC(C)(C)NCC(O)COc1cccc2c1CC(O)C(O)C2 (centres undefined) [Nadolol] | 0.907 | 0.902 | 0.9 | 0.915 |
| CC[C@H](C)[C@H](N)C1=N[C@H](C(=O)N[C@@H](CC(C)C)C(=O)N[C@H](CCC(=O)O)C(=O)N[C@H](C(=O)N[C@H]2CCCCNC(=O)[C@H](CC(N)=O)NC(=O)[C@@H](CC(=O)O)NC(=O)[C@H](Cc3cnc[nH]3)NC(=O)[C@@H](Cc3ccccc3)NC(=O)[C@H]([C@@H](C)CC)NC(=O)[C@@H](CCCN)NC2=O)[C@@H](C)CC)CS1 [Bacitracin] (HELM PEPTIDE1{[CC[C@H](C)[C@H](N)C1=N[C@H](C(=O)[*:2])CS1].L.[dE].I.K.[NCCC[C@@H](N[*:1])C(=O)[*:2]].I.[dF].H.[dD].N}$PEPTIDE1,PEPTIDE1,5:R3-11:R2$$$V2.0) | 0.731 | 0.856 | 1.02 | 0.932 |
| CC(C(=O)O)c1ccc(N2Cc3ccccc3C2=O)cc1 (centres undefined) [Indoprofen] | 0.99 | 0.879 | 1.18 | 1 |
| Clc1ccc(COC(Cn2ccnc2)c2ccc(Cl)cc2Cl)cc1 (centres undefined) [Econazole nitrate] | 1.04 | 0.995 | 0.968 | 0.894 |
| CC(CN(C)C)CN1c2ccccc2Sc2ccccc21 (centres undefined) [Trimeprazine tartrate] | 0.823 | 1.36 | 0.745 | 1.1 |
| COc1cc2nc(N3CCN(C(=O)C4COc5ccccc5O4)CC3)nc(N)c2cc1OC (centres undefined) [Doxazosin mesylate] | 0.838 | 0.642 | 0.725 | 0.717 |
| Clc1ccc(C(Cn2ccnc2)OCc2ccsc2Cl)c(Cl)c1 (centres undefined) [Tioconazole] | 1.15 | 1 | 0.812 | 0.731 |
| COc1cc2c(cc1OC)C(=O)C(CC1CCN(Cc3ccccc3)CC1)C2 (centres undefined) [Donepezil hydrochloride] | 1.18 | 0.721 | 0.86 | 0.709 |
| CC(=O)[C@H]1CC[C@H]2[C@@H]3CC=C4C[C@@H](O)CC[C@]4(C)[C@H]3CC[C@]12C [Pregnenolone] | 0.79 | 0.936 | 1.04 | 0.968 |
